{"source": "the supplement of paper PMC4604168 (melanoma cell lines)", "note": "Some of the results follow. Many values rest on one well or one pass, so single values are uncertain."}
{"tested_on": "A375", "test": "cell count relative to DMSO control; melanoma cells; higher = more viable cells", "conditions": "library dose: standard library concentration; 72 h", "units": {"cell count": "%"}}
{"compound": "NC(=O)c1ccc(N(C(N)=O)c2c(F)cccc2F)nc1-c1ccc(F)cc1F", "note": "+ CNC(=O)c1cc(Oc2ccc(NC(=O)Nc3ccc(Cl)c(C(F)(F)F)c3)cc2)ccn1 [sorafenib] (first compound 2 µM, partner dose 2 µM);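 further: cells treated in 1,536-well plates, then fixed and DAPI-stained, with nuclei counted from automated high-throughput microscope images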", "cell count": 88.4}
{"compound": "COc1cc2c(Oc3ccc4[nH]c(C)cc4c3F)ncnc2cc1OCCCN1CCCC1", "note": "[cediranib] + O=c1cc(-c2cccc3c2Sc2ccccc2S3)oc(N2CCOCC2)c1 [KU55933] (first compound 2 µM, partner dose 5 µM)", "cell count": 127}
{"compound": "CCCCCCCCc1ccc(CCC(N)(CO)CO)cc1", "note": "[fingolimod] + Nc1ccn([C@@H]2O[C@H](CO)[C@@H](O)C2(F)F)c(=O)n1 [gemcitabine] (first compound 10 µM, partner dose 0.002 µM)", "cell count": 75}
{"compound": "NC(=O)c1ccc(N(C(N)=O)c2c(F)cccc2F)nc1-c1ccc(F)cc1F", "note": "+ CCN(CC)CCNC(=O)c1c(C)[nH]c(/C=C2\\C(=O)Nc3ccc(F)cc32)c1C [sunitinib] (first compound 2 µM, partner dose 2 µM)", "cell count": 89.7}
{"compound": "CC(C)(C)c1cnc(CSc2cnc(NC(=O)C3CCNCC3)s2)o1", "note": "+ Cc1cc(N2CCOCC2)cc2[nH]c(-c3c(NC[C@@H](O)c4cccc(Cl)c4)cc[nH]c3=O)nc12 [BMS536924] (first compound 0.05 µM, partner dose 1 µM)", "cell count": 110}
{"compound": "Cc1ccc(NC(=O)c2cccc(N(C)C)c2)cc1NC(=O)c1ccc(O)cc1", "note": "+ NC(=O)Nc1cc(-c2cccc(F)c2)sc1C(=O)N[C@H]1CCCNC1 [AZD7762] (first compound 10 µM, partner dose 0.1 µM)", "cell count": 44}
{"compound": "NC(=O)c1ccc(N(C(N)=O)c2c(F)cccc2F)nc1-c1ccc(F)cc1F", "note": "+ NCC(=O)Nc1ccc(-n2nc(C(F)(F)F)cc2-c2ccc3c(ccc4ccccc43)c2)cc1 [OSU03012] (first compound 2 µM, partner dose 5 µM)", "cell count": 62.4}
{"compound": "CCCCCCCCc1ccc(CCC(N)(CO)CO)cc1", "note": "[fingolimod] + NC1(c2ccc(-c3nc4ccn5c(=O)[nH]nc5c4cc3-c3ccccc3)cc2)CCC1 [MK2206] (first compound 10 µM, partner dose 2 µM)", "cell count": 30.6}
{"compound": "CC(C)(C)c1cnc(CSc2cnc(NC(=O)C3CCNCC3)s2)o1", "note": "+ NC(=O)Nc1cc(-c2cccc(F)c2)sc1C(=O)N[C@H]1CCCNC1 [AZD7762] (first compound 0.05 µM, partner dose 0.1 µM)", "cell count": 56.3}
{"compound": "CC(C)(C)c1cnc(CSc2cnc(NC(=O)C3CCNCC3)s2)o1", "note": "+ CN(NC(=O)CC(=O)NN(C)C(=S)c1ccccc1)C(=S)c1ccccc1 [STA4783] (first compound 0.05 µM, partner dose 0.03 µM)", "cell count": 86.7}
{"compound": "NC(=O)c1ccc(N(C(N)=O)c2c(F)cccc2F)nc1-c1ccc(F)cc1F", "note": "+ NC(=O)Nc1cc(-c2cccc(F)c2)sc1C(=O)N[C@H]1CCCNC1 [AZD7762] (first compound 2 µM, partner dose 0.1 µM)", "cell count": 78.4}
{"compound": "CCCCCCCCc1ccc(CCC(N)(CO)CO)cc1", "note": "[fingolimod] + COc1cc(N2CCC(N3CCN(C)CC3)CC2)ccc1Nc1ncc(Cl)c(Nc2ccccc2S(=O)(=O)C(C)C)n1 [NVP-TAE684] (first compound 10 µM, partner dose 0.4 µM)", "cell count": 77.7}
{"compound": "NC(=O)c1ccc(N(C(N)=O)c2c(F)cccc2F)nc1-c1ccc(F)cc1F", "note": "+ CO[C@@H]1[C@H](N(C)C(=O)c2ccccc2)C[C@H]2O[C@]1(C)n1c3ccccc3c3c4c(c5c6ccccc6n2c5c31)C(=O)NC4 [Midostaurin] (first compound 2 µM, partner dose 0.4 µM)", "cell count": 77}
{"compound": "NC(=O)c1ccc(N(C(N)=O)c2c(F)cccc2F)nc1-c1ccc(F)cc1F", "note": "+ C=C(c1ccc(C(=O)O)cc1)c1cc2c(cc1C)C(C)(C)CCC2(C)C [Bexarotene] (first compound 2 µM, partner dose 10 µM)", "cell count": 95.7}
{"compound": "CCCCCCCCc1ccc(CCC(N)(CO)CO)cc1", "note": "[fingolimod] + CS(=O)(=O)CCNCc1ccc(-c2ccc3ncnc(Nc4ccc(OCc5cccc(F)c5)c(Cl)c4)c3c2)o1 [lapatinib] (first compound 10 µM, partner dose 4 µM)", "cell count": 11.4}
